# Measured values: PubChem BioAssay (Tox21)
# Inconclusive results, whose numbers are uncertain, are shown with a selection of clear calls. For part of these data: Potencies of inconclusive entries are left out as doubtful fits. Activity calls are given as the source filed them. Unless noted, the call rests on the fitted dose curve; in most records, active means well fitted curve in the direction sought with a large enough effect in the repeat runs; inconclusive means weak or mixed curves; inactive means no such curve, though single readings can be large; an effect the other way counts as inactive or inconclusive.
# What was measured:
# [1] = qHTS assay to identify small molecule agonists of the estrogen receptor beta (ER-beta) signaling pathway - cell viability counter screen (AID 1259380); settings: ER-beta-bla HEK293T viability, CellTiter-Glo luminescence, 16 h; series mostly up to 92.4 µM; further: nearly all actives have a fitted effect of over 30% in size; further: potency means the concentration at half of the fitted maximal effect
# Summary of the method: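 Luminescence read-out (CellTiter-Glo, 30 min, room temp) taken in the same wells as the beta-lactamase reporter assay; ER-beta-UAS-bla HEK293T cells exposed to DMSO-dissolved compounds for 16 hr at 37C in 2% charcoal-stripped FBS medium.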
# [2] = target: Thyrotropin receptor (Homo sapiens) (UniProt P16473); test: qHTS assay to identify small molecule antagonists of the thyroid stimulating hormone receptor (TSHR) signaling pathway (AID 1259385; calls by dose curve; further: nearly all actives have a fitted effect of over 20% in size; further: potency means the concentration at half of the fitted maximal effect); settings: TSHR-HEK293 cAMP HTRF, TSH-stimulated antagonist mode; activity change, negative = inhibition: at 92.4 µM (top of the series) unless noted
# Chain of UniProt P16473 (P16473 whole entry, looked up): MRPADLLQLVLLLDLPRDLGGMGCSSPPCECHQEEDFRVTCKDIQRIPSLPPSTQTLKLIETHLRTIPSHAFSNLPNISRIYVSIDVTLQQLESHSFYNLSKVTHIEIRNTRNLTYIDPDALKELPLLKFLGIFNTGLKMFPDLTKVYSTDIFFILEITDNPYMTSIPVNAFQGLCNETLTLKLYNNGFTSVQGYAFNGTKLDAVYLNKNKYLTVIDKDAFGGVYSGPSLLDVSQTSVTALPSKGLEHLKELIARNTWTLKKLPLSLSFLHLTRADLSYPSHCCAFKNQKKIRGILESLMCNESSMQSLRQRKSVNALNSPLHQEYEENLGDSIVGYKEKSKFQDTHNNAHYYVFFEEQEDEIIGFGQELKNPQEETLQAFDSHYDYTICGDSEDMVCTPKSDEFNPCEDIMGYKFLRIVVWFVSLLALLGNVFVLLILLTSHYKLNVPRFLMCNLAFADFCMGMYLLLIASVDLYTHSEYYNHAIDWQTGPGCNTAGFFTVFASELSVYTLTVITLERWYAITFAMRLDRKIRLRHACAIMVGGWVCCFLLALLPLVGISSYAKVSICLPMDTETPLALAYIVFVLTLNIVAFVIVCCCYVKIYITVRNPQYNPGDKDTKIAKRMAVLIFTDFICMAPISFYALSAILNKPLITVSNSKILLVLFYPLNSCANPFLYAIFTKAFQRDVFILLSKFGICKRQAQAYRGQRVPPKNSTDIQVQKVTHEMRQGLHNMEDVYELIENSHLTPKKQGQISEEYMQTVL
# Summary of the method: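 TSHR-HEK293 cells (800/well) plated 18 h, then compounds with Ro20-1724 and TSH at 1.5 ng/mL final, 30 min at room temperature. cAMP quantified by HTRF (cAMP-d2/anti-cAMP-cryptate, 1 h); 15 concentrations in triplicate.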
# [3] = qHTS assay to identify small molecule antagonists of the TGF-beta/Smad signaling pathway - cell viability counter screen (AID 1346824); settings: SBE-bla HEK293T viability, CellTiter-Glo luminescence; series mostly up to 76.8 µM; further: potency means the concentration at half of the fitted maximal effect; nearly all actives have a fitted effect of over 50% in size
# Summary of the method: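 SBE-bla HEK 293T cells, incubated overnight, then compound plus 0.25 ng/mL TGF-beta1 (stock added) for 5 hr at 37 C. Viability was read in the same wells by CellTiter-Glo luminescence after 30 min at room temperature.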
# [4] = target: Progesterone receptor (Homo sapiens) (UniProt P06401); test: qHTS assay to identify small molecule agonists of the progesterone receptor (PR) signaling pathway (AID 1346784; calls by dose curve; further: nearly all actives have a fitted effect of over 30% in size); settings: PR-UAS-bla HEK293T, beta-lactamase FRET ratio, 16 h; series mostly up to 92.4 µM
# Chain of UniProt P06401 (P06401 whole entry, looked up): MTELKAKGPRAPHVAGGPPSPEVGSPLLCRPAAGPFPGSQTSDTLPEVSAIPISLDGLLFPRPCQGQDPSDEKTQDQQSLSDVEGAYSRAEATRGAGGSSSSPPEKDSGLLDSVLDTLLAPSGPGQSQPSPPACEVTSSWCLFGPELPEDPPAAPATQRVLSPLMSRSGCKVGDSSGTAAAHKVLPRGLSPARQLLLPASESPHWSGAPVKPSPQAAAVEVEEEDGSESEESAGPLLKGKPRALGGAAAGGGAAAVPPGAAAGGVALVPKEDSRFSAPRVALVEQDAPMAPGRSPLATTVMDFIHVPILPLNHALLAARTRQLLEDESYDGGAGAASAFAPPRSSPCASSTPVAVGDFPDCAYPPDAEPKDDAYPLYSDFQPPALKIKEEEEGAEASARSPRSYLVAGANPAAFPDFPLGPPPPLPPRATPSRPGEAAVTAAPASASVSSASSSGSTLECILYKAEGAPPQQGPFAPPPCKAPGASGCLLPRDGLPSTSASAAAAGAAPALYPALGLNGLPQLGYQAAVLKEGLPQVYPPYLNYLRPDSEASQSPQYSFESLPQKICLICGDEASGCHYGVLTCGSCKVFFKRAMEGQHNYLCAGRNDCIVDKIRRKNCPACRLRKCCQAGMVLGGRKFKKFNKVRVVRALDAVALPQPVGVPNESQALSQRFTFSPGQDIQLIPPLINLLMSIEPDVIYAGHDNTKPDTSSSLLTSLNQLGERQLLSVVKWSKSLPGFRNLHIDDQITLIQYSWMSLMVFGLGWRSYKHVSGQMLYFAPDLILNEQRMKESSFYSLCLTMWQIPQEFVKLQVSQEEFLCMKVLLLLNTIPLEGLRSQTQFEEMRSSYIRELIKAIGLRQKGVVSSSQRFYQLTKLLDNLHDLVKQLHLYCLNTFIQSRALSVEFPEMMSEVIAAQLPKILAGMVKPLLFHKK
# Summary of the method: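 Seed PR-UAS-bla HEK 293T cells (2% charcoal-stripped FBS), incubate 6 hr at 37C; add compounds in DMSO, 16 hr at 37C; add LiveBLAzer B/G substrate, 2 hr RT; read fluorescence intensity.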
# [5] = target: Progesterone receptor (Homo sapiens) (UniProt P06401); test: qHTS assay to identify small molecule antagonists of the progesterone receptor (PR) signaling pathway (AID 1346795; active means well fitted inhibition curve with a large enough effect in the signal ratio in the repeat runs, not every such curve was filed as active; inconclusive means weak or mixed curves; the % refers to the signal ratio; further: potency means the concentration at half of the fitted maximal effect); settings: PR-UAS-bla HEK293T, beta-lactamase FRET ratio, 16 h; activity change, negative = inhibition: at 92.4 µM (top of the series) unless noted
# Summary of the method: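 Screening used a GripTite HEK293T line with PR-responsive UAS-beta-lactamase. Cells were challenged with compound in the presence of 1 nM R5020 final for 16 hr at 37C; B/G FRET substrate, 2 hr room temperature, fluorescence.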
# [6] = qHTS assay to identify small molecule agonists of the TGF-beta/Smad signaling pathway - cell viability counter screen (AID 1346829); settings: SBE-bla HEK293T viability, CellTiter-Glo luminescence, 5 h; series mostly up to 76.8 µM; further: potency means the concentration at half of the fitted maximal effect; nearly all actives have a fitted effect of over 45% in size
# Summary of the method: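 SBE-bla HEK 293T cells plated overnight, compound exposure 5 hr at 37 C. Viability read in the same wells by CellTiter-Glo luminescence after 30 min at room temperature, following the beta-lactamase read.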
# [7] = qHTS assay to identify small molecule antagonists of the progesterone receptor (PR) signaling pathway - cell viability counter screen (AID 1346798); settings: PR-UAS-bla HEK293T viability, CellTiter-Glo luminescence, 16 h; series mostly up to 92.4 µM; further: nearly all actives have a fitted effect of over 50% in size; further: potency means the concentration at half of the fitted maximal effect
# Summary of the method: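 Measures cytotoxicity in parallel with the PR antagonist reporter read: HEK293T PR-UAS-bla cells get compound and R5020 for 16 hr, and remaining viable cells are quantified by CellTiter-Glo luminescence.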
# [8] = qHTS assay to identify small molecule agonists of the progesterone receptor (PR) signaling pathway - cell viability counter screen (AID 1346799; calls by dose curve; further: nearly all actives have a fitted effect of over 45% in size); settings: PR-UAS-bla HEK293T viability, CellTiter-Glo luminescence, 16 h; series mostly up to 92.4 µM
# Summary of the method: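 Using the same plates as the PR reporter screen, HEK293T PR-UAS-bla cells received compounds for 16 hr at 37C and were then lysed with CellTiter-Glo; luminescence was read 30 min later at room temperature.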
# [9] = qHTS assay to identify small molecule agonists of the estrogen receptor alpha (ER-alpha) signaling pathway in the presence of an antagonist - cell viability counter screen (AID 1259386); settings: VM7Luc4E2 viability, CellTiter-Fluor fluorescence, 22 h; series mostly up to 92.4 µM;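 further: cells exposed to compounds for 22 h at 37 °C before the viability read; nearly all actives have a fitted effect of over 30% in size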
# Summary of the method: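 Read-out: CellTiter-Fluor fluorescence after 1hr reagent incubation, measured in the same wells as the luciferase readout. VM7Luc4E2 cells were exposed to 15 compound concentrations with 10.0nM ICI-182,780 for 22hr at 37C.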
# Tags describe the fitted curve by direction and shape.
structure (smiles),measurement,setting,value
CCc1c(C)cc(N)c(CC)c1N,Potency,[1],inactive
same,Potency,[2],inconclusive
same,Potency,[3],"inconclusive [rising, partial curve]"
C#CCN(C)CCCOc1ccc(Cl)cc1Cl,Potency,[1],"inconclusive [cytotoxic, single point]"
same,Potency,[4],inactive
same,Potency,[5],inconclusive [partial curve]
same,Potency,[6],"inconclusive [cytotoxic, partial curve, poor fit]"
CC(C)CC(C)(N)C#N (stereo not given),Potency,[1],inactive
same,Potency,[2],inactive
same,Potency,[5],inactive
same,Potency,[7],"inconclusive [cytotoxic, single point]"
same,Potency,[8],inactive
COC(=O)c1ccccc1C(=O)c1ccc(OCCN2CCCCC2)cc1,Potency,[1],"inconclusive [cytotoxic, full curve]"
same,Potency,[9],inactive
same,Potency,[7],inactive
